The whole screen tested about 46,000 compounds, of which about 60 (0.1%) were called active. Roughly 3% stayed inconclusive and do not appear here. Calls follow the shape of the dose curve; as a rule, active = well fitted inhibition curve with a large enough effect; inconclusive = small, poorly fitted or top-dose-only effect; inactive = no such curve, though single readings can be large or run the other way. Some of the results follow.

Here are results for 97 molecules from PubChem BioAssay AID1963576 (National Center for Advancing Translational Sciences (NCATS), 2024).

The assay can be described thus: Primary qHTS assay for Inhibitors of ovarian cancer metastasis using an organotypic tumor microenvironment (TME) model. Also: nearly all actives have a fitted effect of over 65% in size.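 As to activity change, negative = inhibition: plate controls were DMSO wells for no effect and tomatine positive control wells for full effect.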 Conditions: SKOV3ip1-GFP adhesion/invasion on 3D omental model, fluorescence; series mostly up to 45.8 µM; activity change, negative = inhibition: at the top concentration. The procedure, abridged:
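Adhesion/invasion was scored as fixed GFP-labeled SKOV3ip1 cell counts (488/509 nm), normalized to DMSO and tomatine controls. Cancer cells in serum-free medium, with four compound doses (0.36-46 umol/L), sat 2 hr at RT then 16 hr at 37 C on a 48 hr fibroblast/mesothelial/ECM culture.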
For the molecule `Cc1cc(Nc2cccc(F)c2)n2nc(-c3ccco3)nc2n1`, the result was inactive.
The same measure, in the same setting: the same measure for `Cc1cccc(CN2C(=O)c3ccccc3Sc3ccc(C(=O)NCCc4ccccc4)cc32)c1`: “inactive”.
Regarding `CCC(=O)N1CCc2cc(CNS(=O)(=O)c3ccc(Cl)s3)ccc21`, the “activity change, negative = inhibition” value is inactive: -9.31%.
For `Cc1ccc2nc(SC(Cc3cc(Cl)ccc3Cl)C(=O)O)[nH]c2c1` (configuration not stated), the “activity change, negative = inhibition” value is inactive: 6.85%.
On the same count and under the same terms, the same measure for `COc1ccc(CNC(=O)c2cc3sccc3n2C)cc1`: inactive: -0.732%; for `COc1cccc(NC(=O)c2sc3nc(C)c(C(=O)Nc4ccc(C)cc4C)c(-c4ccc(Br)cc4)c3c2N)c1`: inactive: -18.9%; for `Cc1cc(Cl)ccc1NC(=O)C1CCN(S(=O)(=O)c2ccc3[nH]c(=O)ccc3c2)CC1`: inactive: -12.4%.
`COc1ccc(N2CCN(C(=O)c3cc4c(=O)n(Cc5cccs5)ccc4nc3C)CC2)cc1`: the molecule was called inactive.
As to `NC(=O)C1(N2CCCCC2)CCN(C(=O)Nc2ccc(Cl)c(Cl)c2)CC1`, the “activity change, negative = inhibition” value was inactive: 13.6%.
Same read-out and setting: for `Cc1ccc(C)c(N2CCN(C(=O)C3CCN(Cc4nc(-c5cccc(Cl)c5)oc4C)CC3)CC2)c1` the value was inactive: 0.732%; for `Cc1ccc(C2c3[nH]c4ccccc4c3CCN2C(=O)c2ccc(N(C)C)cc2)cc1` (configuration not stated), inactive: -2.54%.
On to `CCOC(=O)c1cc(-c2ccccc2)nn1Cc1ccccc1`, for which the call was inactive.
For the molecule `O=C(CCOc1ccccc1)N(Cc1cccnc1)c1nc2c(Cl)cccc2s1`, the molecule was called inactive.
As to `Cc1ccc(CCNC(=O)CCSCc2ccccc2F)cc1`, the molecule was called inactive.
The same measure, in the same setting: the same measure for `Cc1cccc(Cn2c(=O)n(CCc3ccccc3)c(=O)c3sc4ccccc4c32)c1`: “inactive”; for `CCOC(=O)c1c(C)[nH]c(CCC(=O)Nc2ccc(N(CC)CC)cc2C)c1C`: “inactive”.
In the case of `COc1ccc(CN(C(=O)Nc2ccccc2)c2ccccn2)cc1OC`, the “activity change, negative = inhibition” value was inactive: 4.46%.
Same read-out and setting: the same measure for `CC(C)NC(=O)c1cnc2sc(N3CCCCCC3)nn2c1=O`: inactive: -4.57%.
As for `CCn1nnc2cc(C(=O)Nc3cccc(C(F)(F)F)c3)ccc21`, the call was inactive.
Regarding `CCOC(=O)N1CCc2c(sc3c2c(=O)n(Cc2ccccc2)c(=O)n3CC(=O)Nc2ccccc2F)C1`, the molecule was called inactive.
As for `O=S(=O)(Nc1c(F)cccc1F)c1ccc2c(c1)OCCO2`, the “activity change, negative = inhibition” value is inactive: -7.71%.
As to `Cc1ccc2oc(C(=O)Nc3c(C(=O)c4ccc(C)c(F)c4)oc4ccccc34)cc(=O)c2c1`, the “activity change, negative = inhibition” value is inactive: 0.867%.
With `Cc1ccc(S(=O)(=O)N(Cc2nc(-c3ccc(Cl)cc3)no2)C2CCCCC2)cc1`, the “activity change, negative = inhibition” value is inactive: -1.53%.
Still for that read-out and setting: for `COc1ccccc1N1CCN(CCC(=O)Nc2cccc(F)c2)CC1` the value was inactive: 6.9%; for `CCOCCCNC(=O)N1CCN(S(=O)(=O)c2ccc3c(ccn3C)c2)CC1`, inactive: 78.5%.
`COc1ccc(-c2noc(-c3ccc(N4CCOCC4)c([N+](=O)[O-])c3)n2)cc1OC`: the “activity change, negative = inhibition” value was inactive: 9.84%.
With `CCCCSCCCNC(=O)CN1C(=O)COc2ccc(S(=O)(=O)N3CCCC3)cc21`, the call was inactive.
Still for that read-out and setting: for `COc1ccc(CNc2nc(-c3ccc(OC)c(OC)c3)cc(C(F)(F)F)n2)cc1` the value was “inactive”.
`O=C(Cn1c(=O)n(-c2ccccc2)c(=O)c2ccc(C(=O)NCc3ccc4c(c3)OCO4)cc21)Nc1ccc(Br)cc1F`: the “activity change, negative = inhibition” value was inactive: 12.5%.
On the same count and under the same terms, for `CCOc1ccc(NC(=O)CSc2oc(-c3cccs3)nc2S(=O)(=O)c2ccc(Cl)cc2)cc1` the value was inactive: -6.54%.
`CCOc1ccc(CNC(=O)c2cnc(SC)nc2CC)cc1`: the call was inactive.
As for `CCOC(=O)c1ccc(NS(=O)(=O)c2cc3c(cc2C)n(C)c(=O)c(=O)n3C)cc1`, the “activity change, negative = inhibition” value was inactive: 29.4%.
On the same count and under the same terms, the same measure for `Cn1c(=O)c2c(SCC(=O)NCC3CCCO3)nc(-c3ccccc3F)nc2n(C)c1=O` (configuration not stated): inactive: 0.697%.
Still for that read-out and setting: the same measure for `COc1cccc(/C=C(\C#N)c2nc3ccc(C)cc3[nH]2)c1`: inactive: -15.3%; for `CCN(CCCNC(=O)c1cc2cc3cc(OC)ccc3nc2s1)c1ccccc1`: inactive: 1.05%.
Consider `Cc1ccc(CNC(=O)CSc2nc3ccsc3c(=O)n2-c2ccc(C(=O)O)cc2)cc1`, for which the “activity change, negative = inhibition” value was inactive: 0.114%.
The same measure, in the same setting: the same measure for `CC1(C)C(=O)N(CC(=O)Nc2ccc(OC(F)(F)F)cc2)c2ccccc21`: inactive: 1.21%.
Consider `Oc1cccc(Nc2nc(-c3ccccc3)nc3ccccc23)c1`, for which the call was inactive.
For `CCCSc1ncc(Cl)c(C(=O)Nc2ccc(CC)cc2)n1`, the call was inactive.
Still for that read-out and setting: the same measure for `COc1ccc(NC(=O)Cn2c(=O)n(-c3ccccc3)c(=O)c3ccc(C(=O)NCc4ccc5c(c4)OCO5)cc32)cc1`: “inactive”.
For the molecule `Cc1cc(NC(=O)c2ccc(Cl)c(Cl)c2)ccc1-c1cc2ccccc2oc1=O`, the “activity change, negative = inhibition” value was inactive: -9.71%.
Turning to `CCOC(=O)c1c(C)[nH]c(C)c1S(=O)(=O)N(C)CC(=O)Nc1cc(Cl)ccc1OC`, the molecule was classed as inactive.
With `COc1cccc(NC(=O)CCNS(=O)(=O)c2ccc3c(c2)CCCC(=O)N3)c1`, the “activity change, negative = inhibition” value was inactive: 6.73%.
Still for that read-out and setting: the same measure for `CCOC(=O)C1CCC(CN(Cc2c(Cl)cccc2Cl)S(=O)(=O)c2ccc(F)c(C)c2)CC1` (configuration not stated): inactive: 3.03%; for `O=C(CSC1=Nc2ccccc2C2=NC(CCC(=O)NC3CCCCC3)C(=O)N12)Nc1cccc(Cl)c1` (configuration not stated): inactive: -26%; for `Cc1cccc(-c2nc3c4ccccc4nc(NCCc4ccccc4)n3n2)c1`: inactive: 4.47%.
The same measure, in the same setting: for `O=S(=O)(NCc1nc2cccnc2n1Cc1ccccc1Cl)c1ccc2c(c1)CCCC2` the value was inactive: 3.31%; for `O=C(COCc1cc(-c2ccc(F)cc2)on1)Nc1cc(F)ccc1F`, inactive: -8.69%.
On the same count and under the same terms, the same measure for `CCOc1ccc(NS(=O)(=O)c2ccc3[nH]c4c(c3c2)CCCCC4)cc1`: inactive: -25.6%; for `O=c1c(NCc2cccs2)nccn1-c1ccc(F)cc1`: inactive: 3.89%; for `Cc1nc2ccccc2n1CCc1nc2c3ccccc3nc(SCc3ccc(C#N)cc3)n2n1`: inactive: -1.64%.
Take `COc1cccc(NC(=O)CN(CCc2ccccc2)S(=O)(=O)c2ccc(Cl)cc2)c1`: the “activity change, negative = inhibition” value is inactive: -7.47%.
Consider `CCOC(=O)CSc1nc2ccc(NC(=O)c3cccc(F)c3)cc2s1`, for which the “activity change, negative = inhibition” value is inactive: -5.21%.
Turning to `COc1ccc(CNC(=O)c2ccc3c(c2)N(Cc2c(F)cccc2Cl)C(=O)CS3)cc1`, the “activity change, negative = inhibition” value is inactive: -7.2%.
Turning to `O=C(CCn1cccn1)Nc1ccc(Br)cc1F`, the “activity change, negative = inhibition” value was inactive: 2.48%.
Same read-out and setting: for `O=C(CCSCc1ccccc1Cl)NCc1ccc(F)cc1Cl` the value was inactive: 10.3%; for `COc1ccccc1N1CCN(C(=O)c2c(C)oc3ncn(C)c(=O)c23)CC1`, inactive: 0.205%; for `Cc1cc2c(n1-c1ccc(C(=O)NCc3ccccc3Cl)cc1)CCCC2`, inactive: -5.04%.
The same measure, in the same setting: the same measure for `O=C(CN1C(=O)CCn2nc(-c3ccccc3)cc21)NCc1ccc(Cl)cc1`: inactive: -7.46%; for `Cc1cccc(CCNC(=O)c2cc3c(=O)n(C)c4ccccc4c3n2C)c1`: inactive: -27.3%.
Same read-out and setting: the same measure for `CCc1cc2c(cc3c(=O)n(CCCC(=O)NCc4cccc(Cl)c4)ncn32)s1`: inactive: -10.6%.
On to `CCN(CC)CCCNC(=O)Cc1csc2nc(-c3ccc(Cl)cc3)cn12`, for which the “activity change, negative = inhibition” value is inactive: 8.29%.
For the molecule `CCOc1ccccc1NS(=O)(=O)c1ccc2c(c1)oc(=O)n2C`, the “activity change, negative = inhibition” value is inactive: 5.11%.
For `CCOc1ccccc1C(=O)NC1(C(F)(F)F)C(=O)Nc2c1c(=O)[nH]c(=O)n2-c1ccc(F)cc1` (configuration not stated), the “activity change, negative = inhibition” value is inactive: -2.67%.
On the same count and under the same terms, for `CSc1ccc(CCNC(=O)CCc2c(C)nc3ncnn3c2C)cc1` the value was inactive: 10.3%; for `Cc1ccc(CN2C(=O)c3ccccc3CC2(C)C(=O)NC2CCCCC2)cc1` (configuration not stated), inactive: -0.376%; for `COc1ccc(NC(=O)NC2COc3ccccc3C2)cc1Cl` (configuration not stated), inactive: -3.4%.
Still for that read-out and setting: for `Cc1cccc(N2CCN(C(=O)c3noc4c3COc3ccc(C)cc3-4)CC2C)c1` (configuration not stated) the value was inactive: -10.9%.
The same measure, in the same setting: for `Cc1cccc2c1-c1sc(C(=O)N(C)c3cccc(Cl)c3)cc1CO2` the value was inactive: -4.02%; for `COc1ccc(C(CC(=O)Nc2ccc(C(C)=O)cc2)N2Cc3ccccc3C2=O)cc1` (configuration not stated), inactive: 43.4%.
For `O=C(c1ccc2c(c1)N(Cc1cccc(F)c1)C(=O)c1ccccc1S2)N1CCCC1`, the “activity change, negative = inhibition” value is inactive: -1.12%.
On the same count and under the same terms, the same measure for `CC(C)c1cnc2c(c1SCC(=O)NCc1ccccc1Cl)c(=O)n(C)c(=O)n2C`: inactive: 48.9%; for `COC(=O)c1c(-c2cccs2)csc1NC(=O)COc1ccc(C)cc1`: inactive: 1.49%; for `COc1cccc(OC)c1C(=O)NCCc1csc(-c2ccc(Cl)cc2)n1`: inactive: 0.613%.
Same read-out and setting: the same measure for `Cc1ccc(C(=O)Nc2cccc3cccnc23)cc1Cl`: inactive: 10.6%; for `COc1ccccc1N1CCN(CCN(C(=O)C2CCCCC2)c2ccccn2)CC1`: inactive: -13.6%; for `OC[C@H]1O[C@@H](Oc2cc(O)cc(C=Cc3ccc(O)cc3)c2)[C@H](O)[C@@H](O)[C@H]1O`: inactive: 5.04%.
The same measure, in the same setting: the same measure for `COc1ccc(-c2csc(=Nc3ccccc3)n2CCO)cc1F`: inactive: 14.9%; for `CN1CCN(c2ncc3c(n2)CCN(Cc2ccc(Br)s2)C3)CC1`: inactive: -10%; for `CCOc1ccc(NC(=O)COc2ccc(S(=O)(=O)NC3CCCCC3)cc2)cc1`: inactive: 0.627%.
As to `CC(C)=CCCC(C)=CCCC(C)=CCCC(C)=CCCC(C)=CCCC(C)=CCCC(C)=CCCC(C)=CCCC(C)=CCO`, the “activity change, negative = inhibition” value was inactive: 10%.
Same read-out and setting: the same measure for `CCOC(=O)c1c(Nc2ccc(OC)cc2)nnc(-c2ccccc2)c1-c1ccccc1`: inactive: -2.03%; for `CCOC(=O)N1CCc2c(sc3c2c(=O)n(-c2ccc(Cl)cc2)c(=O)n3CC(C)C)C1`: inactive: -7.49%; for `CCCOc1ccc(-c2nc(SCC(=O)c3ccc(Cl)cc3)n[nH]2)cc1`: inactive: 3.76%.
The same measure, in the same setting: the same measure for `Cn1c(=O)c2sccc2n2c(CCC(=O)NCc3ccc(Cl)cc3)nnc12`: inactive: -2.13%.
Regarding `CC(=O)c1ccc(N2CCN(C(=O)C3CCN(S(=O)(=O)c4cn(C)cn4)CC3)CC2)cc1`, the “activity change, negative = inhibition” value was inactive: 5.88%.
For the molecule `Cc1cccc(-c2nc3scc(CCNS(=O)(=O)c4ccc5c(c4)OCCO5)n3n2)c1`, the outcome was inactive.
With `CCOc1ccc(CNC(=O)Cc2ccc(NC(=O)N3CCSc4ncccc43)cc2)cc1`, the molecule was classed as inactive.
For `Cc1cccn2c(=O)c(C(=O)NCc3cccc(F)c3)cnc12`, the “activity change, negative = inhibition” value is inactive: -5.64%.
On the same count and under the same terms, for `Cc1ccc(Cl)cc1Nc1nn2c(=O)c3ccc(C(=O)NCc4ccc(F)cc4)cc3nc2s1` the value was inactive: 4.83%; for `CCc1ccc(NC(=O)Cn2ccn(-c3ccc(C)c(C)c3)c(=O)c2=O)cc1`, inactive: -4.44%.
Still for that read-out and setting: for `Cc1ccc(S(=O)(=O)c2nc(S(=O)(=O)c3ccccc3)sc2NCCCOC(C)C)cc1` the value was inactive: 16.1%; for `Fc1ccc(Cl)cc1-c1nc(Nc2ccncc2)c2nccnc2n1`, inactive: 0.412%; for `COc1ccc(-c2nc3cc(NC(=O)CSc4ccc(C)cc4)ccc3o2)cc1`, inactive: 13.4%.
Same read-out and setting: the same measure for `COc1ccc(NC(=O)c2oc3ccccc3c2NC(=O)Cc2coc3c(C)c(C)ccc23)cc1`: inactive: -22.2%; for `COc1ccccc1-c1cc(C(=O)NCc2ccccc2)c2c(-c3ccc(C)cc3)[nH]nc2n1`: inactive: -3.05%.
Take `Cc1ccccc1NC(=O)Cn1c(=O)n(Cc2ccc3c(c2)OCO3)c(=O)c2ccccc21`: the call was inactive.
